“And” between values parts separate entries of the source, which are not always exact repeats. Identical values can stand only once. Among all 71,000 compounds or so, about 180 (0.25%) were called active. Inconclusive results, whose numbers are uncertain, are shown with a selection of clear calls. The call rests on the fitted dose curve; in most records, active means well fitted curve in the direction sought with a large enough effect; inconclusive means small, poorly fitted or top-dose-only effect; inactive means flat fitted curve, though single readings scatter. Potencies of inconclusive entries are doubtful fits and often do not repeat. Where a structure was tested more than once in an assay, its records may differ in their call. Residues, ends and D or L forms follow the SMILES beside them.
These compounds were tested on DNA polymerase III holoenzyme (E. coli) (assay: qHTS Assay for Inhibitors of DNA Polymerase III Holoenzyme System). Settings: reconstituted DNA polymerase III holoenzyme replication, biochemical; series mostly up to 57.1 µM.
Outline: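 Reconstituted *E. coli* holoenzyme (0.35 nM Pol III, 1 nM beta, 154 nM SSB, 2 nM primase) was preincubated with compound for 15 min at RT. Synthesis on 1.4 nM ssM13Gori ran 35 min, then was stopped with PicoGreen/EDTA and read as dsDNA fluorescence.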
On the % scale 0 is the no-effect control and ±100 the full control effect; potency means the concentration at half of the fitted maximal effect.

Compound	Potency	activity change, negative = inhibition
Cc1nc2ccccc2c2nc3ccccc3n12	inactive	–
CC(C)CCn1c(SCCc2ccccc2)nc2c1c(=O)[nH]c(=O)n2C	inconclusive: 6.31 µM	–
COCCSc1nnc(-c2cccc(C#N)c2)n1C	inactive	–
O=c1cc(-c2ccc(O)c(O)c2)oc2cc(O[C@@H]3O[C@@H](CO)[C@@H](O)[C@@H](O)[C@H]3O)cc(O)c12	active: 1 µM	–
O=C(Cn1cnc2ccccc21)Nc1cc(C(F)(F)F)ccc1N1CCOCC1	inconclusive: 5.01 µM	–
CCC[C@@H]1C[C@@]1(CCC)C(NC(=O)c1cccs1)c1ccc(Cl)cc1 (stereo partly drawn)	inactive	–
O=c1cc(-c2cccc(O)c2)oc2cc(O)ccc12	inactive	–
COc1c(-c2ccc(O)c(O)c2)oc2cc(O)cc(O)c2c1=O	inconclusive: 31.6 µM	–
Brc1ccc(-c2nn3c(-c4ccccn4)nnc3s2)o1	inconclusive: 25.1 µM	–
CCOc1ccc(NC(=O)c2cccc3c2C(=O)N(Cc2cccnc2)C3)cc1	inactive	–
CC(C)(Oc1ccc(Cl)cc1)C(=O)NCCCn1ccnc1	inconclusive: 6.31 µM	–
Cc1ccc(/C=c2\sc3nc(-c4ccco4)nn3c2=O)o1	active: 3.98 µM	–
O=C(Nc1ccccc1)c1ccc2nc(-c3ccco3)c(-c3ccco3)nc2c1	inactive	–
O=C(O)c1ccc(C(=O)c2ccccc2C(=O)O)cc1C(=O)O	active: 3.98 µM	–
O=C(O)[C@H]1CCCC[C@@H]1c1c2ccc(=O)c(O)c-2oc2c(O)c(O)ccc12	active: 0.316 µM	–
CCN(CC)S(=O)(=O)c1cccc(-c2nnc(SCC(=O)NCCC3=CCCCC3)n2N)c1	inconclusive: 6.31 µM	–
COc1ccc(NC(=O)c2ccc(-c3ccc(-c4noc(C)n4)cc3C)cc2)cc1OCCN(C)C	inconclusive: 39.8 µM	–
Nc1nonc1C(=O)NCCc1ccccc1	inactive	–
COc1ccc(C)cc1NC(=O)C1CCCN1S(=O)(=O)c1ccc2c(c1)CCC(=O)N2 (stereo not drawn)	inactive	–
CN(CC(=O)NC(=O)NCc1ccco1)Cc1nc2ccccc2c(=O)[nH]1	inconclusive: 20 µM	–
O=C(Nc1ccc2[nH]c3c(c2c1)CCCC3)c1ccco1	inconclusive: 7.94 µM	–
Cc1ccc2c(c1)C1C=CCC1C(C(=O)O)N2 (stereo not drawn)	inconclusive: 31.6 µM	–

Compound	Potency	activity change, negative = inhibition
COc1ccc(-c2nnc(SCC(=O)c3[nH]c(C)c(C(C)=O)c3C)o2)cc1	inconclusive: 6.31 µM	–
O=C(CNC(=O)c1ccc(Cl)cc1Cl)NCC(=O)Nc1ccccc1N1CCOCC1	inconclusive: 6.31 µM	–
Nc1ncnc2nc[nH]c12.Nc1ncnc2nc[nH]c12.[Cl][Pt]([Cl])([Cl])[Cl]	active: 2.51 µM	–
Cc1ccc(-c2nn(C)c(=O)c3ccccc23)cc1CNS(C)(=O)=O	inactive	–
O=C1CC(O)(C(F)(F)F)Oc2c1ccc1ccccc21 (stereo not drawn)	inactive	–
COc1ccc2cc3cc(C(=O)Nc4ccc5c(c4)OCCO5)oc3nc2c1	inconclusive: 39.8 µM	–
COc1ccc2nc(NC(=O)CSc3nc4cccnc4n3C)sc2c1	inconclusive: 25.1 µM	–
C=CCSC1=N/C(=C\C=C\c2ccco2)C(=O)S1	inconclusive: 12.6 µM	–
Cc1nn(-c2ccc(S(=O)(=O)O)cc2)c(O)c1N=Nc1ccc(-c2ccc(N=Nc3ccc4c(S(=O)(=O)O)cc(S(=O)(=O)O)c(N)c4c3O)c(O)c2)cc1O.[Cu].[Cu]	active: 1.26 µM	–
CN(C1CCCCC1)S(=O)(=O)c1ccc(Cl)c(C(=O)O)c1	inconclusive: 6.31 µM	–
CC(=O)NC(C)C(=O)OCc1ccc(Cl)cc1Cl (stereo not drawn)	inconclusive: 7.94 µM	–
C=Cn1ccnc1P(=S)(c1ccc2c(c1)c1ccccc1n2CC)c1nccn1C=C	inconclusive: 6.31 µM	–
c1ccc2[nH]c(SCCN3CCOCC3)nc2c1	inactive	–
Cc1ccc(/C=N/c2sc3c(c2C#N)CCCCC3)o1	inconclusive: 6.31 µM	–
CN(C(=O)CSc1nc2ccccc2n1CCc1ccccc1)C1CCS(=O)(=O)C1 (stereo not drawn)	inconclusive: 6.31 µM	–
COc1ccc(OC)c(C(=O)COC(=O)c2ccc(C)o2)c1	inconclusive: 5.01 µM	–
Cc1ccc2nsnc2c1S(=O)(=O)N(Cc1ccco1)Cc1cc2cccc(C)c2[nH]c1=O	inconclusive: 7.94 µM	–
CN1Cc2cc(C(=O)c3cc(Cl)cc(CSc4ncccn4)c3O)cnc2NC1=O	inactive	–
CCOC(=O)c1ccc(NC(=O)Nc2ccn(C)n2)cc1	inconclusive: 3.98 µM	–
CC(C)N1CC(O)=C(c2nc3ccccc3[nH]2)C1=N	inconclusive: 6.31 µM	–
COc1ccccc1OCC(=O)Nc1ccc(O)cc1C(=O)O	inactive	–
COc1ccc(OC)c(N2C(=O)[C@@H]3C(c4ccccc4Cl)=NO[C@@H]3C2=O)c1	active: 31.6 µM	–

Compound	Potency	activity change, negative = inhibition
CCc1ccc(NC(=O)CS(=O)CC(=O)Nc2ccc(F)cc2F)cc1 (stereo not drawn)	inconclusive: 39.8 µM	–
CN(N=O)C(=O)N[C@H]1C(O)OC(CO)[C@@H](O)[C@H]1O (stereo partly drawn)	inactive	–
CS(=O)(=O)N1CCC2(CCN(Cc3nccs3)CC2)CC1	inactive	–
COC(=O)c1ccc(C)cc1	inactive	–
COc1cc2cc3c(N)c(C(=O)NCc4ccco4)sc3nc2cc1OC	inconclusive: 25.1 µM	–
COc1cccc(NC(=O)c2oc3ccccc3c2NC(=O)C(C)(C)C)c1	inactive	–
CCCCNC(=O)C(c1ccc(OCC(=O)OC)c(C(=O)OC)c1)N(CCC1=CCCCC1)C(=O)CCCCCN1C(=O)NC(c2ccc(-c3ccccc3)cc2)C(C(=O)OCc2ccccc2)=C1C (stereo not drawn)	inactive	–
CC(=O)Nc1ccc(C2(O)COc3ccccc3O2)cc1 (stereo not drawn)	inconclusive: 6.31 µM	–
Cc1ccccc1-c1ccc2ncnc(NCc3cccs3)c2c1	inconclusive: 39.8 µM	–
COc1ccccc1N1CCN(C(c2ccccc2Cl)c2nnnn2C(C)(C)C)CC1 (stereo not drawn)	inconclusive: 5.01 µM	–
Cc1ccc(C)n1-c1ncn[nH]1	inconclusive: 6.31 µM	–
O=C(O)CCCC(=O)Nc1nc(-c2ccccc2)cs1	inactive	–
O=C1CC(c2cccc(Oc3ccccc3)c2)NC(=O)N1 (stereo not drawn)	inconclusive: 6.31 µM	–
CCOC(=O)c1c(C)oc2ccc(OCC(N)=O)cc12	inconclusive: 6.31 µM	–
NC(N)=NC[C@H](N)C(=O)O	–	inactive: -4.1% [at 11.4 µM]
O=C(Cc1cccs1)Nc1cccnc1	inconclusive: 6.31 µM	–
CCNc1nc(-c2ccc(Cl)cc2)cs1	inactive	–
COc1cc(/C=C\C(=O)N2CCCCC2=O)cc(OC)c1OC	inactive	–
Cc1nc(Nc2nc(-c3ccccc3)cc(=O)[nH]2)nc2ccccc12	inconclusive: 31.6 µM	–
COc1cccc2c1C(=O)c1c(O)c3c(c(O)c1C2=O)C[C@](O)(C(C)=O)C[C@H]3O[C@@H]1C[C@H](N)[C@H](O)[C@H](C)O1	active: 2 µM	–
Nc1cc(=O)[nH]c(SCc2nnc(-c3ccccc3)o2)n1	inconclusive: 6.31 µM	–
Cc1nc(NC(C)c2ccccc2)c2oc3ccccc3c2n1 (stereo not drawn)	inconclusive: 6.31 µM	–

Compound	Potency	activity change, negative = inhibition
Brc1cc2[nH]cnc2c2ccccc12	inactive	–
O=C(Nc1ccc2c(c1)nc1n2CCN(C2CCCCC2)C1)c1ccco1	inactive	–
Cc1ccc(C)n1-c1cccc(C(=O)O)c1	inconclusive: 39.8 µM	–
COc1ccc2c(c1)c(=O)oc1cc(OCC(=O)N3CCC(C)CC3)ccc12	inconclusive: 31.6 µM	–
COc1ccc(C(=O)c2ccc(OC)cc2O)c(O)c1	inactive	–
Cc1ccc(C(=O)Nc2ccc(S(=O)(=O)O)c3cc(S(=O)(=O)O)cc(S(=O)(=O)O)c23)cc1NC(=O)c1cccc(NC(=O)Nc2cccc(C(=O)Nc3cc(C(=O)Nc4ccc(S(=O)(=O)O)c5cc(S(=O)(=O)O)cc(S(=O)(=O)O)c45)ccc3C)c2)c1	active: 39.8 µM and active: 31.6 µM	–
O=C(O)CN(CCN(CC(=O)O)CC(=O)O)CC(=O)O.[Cu]	–	inactive: -7.2% [at 11.4 µM]
O=C(CCCCCn1c(=S)[nH]c2cc3c(cc2c1=O)OCO3)N1CCN(C(=O)c2ccco2)CC1	inconclusive: 39.8 µM	–
CCN(CC(=O)NC1CCS(=O)(=O)C1)c1nc(-c2ccccc2)nc2ccccc12 (stereo not drawn)	inconclusive: 6.31 µM	–
c1ccc(C(c2nnnn2Cc2ccco2)N2CCN(C3CCCC3)CC2)cc1 (stereo not drawn)	inconclusive: 6.31 µM	–
NC(=O)COC(=O)c1cc(S(=O)(=O)N2CCOCC2)ccc1N1CCCCC1	inconclusive: 6.31 µM	–
c1ccc(CSc2nnc(-c3ccco3)c(-c3ccco3)n2)cc1	inconclusive: 31.6 µM	–
COc1cc(-c2[o+]c3cc(O)cc(O)c3cc2O)cc(O)c1O	inconclusive: 3.16 µM	–
CCCCc1ccc(-c2nc(N)n[nH]2)cc1	inactive	–
Nc1c(S(=O)(=O)O)cc(Nc2ccc(Nc3nc(Cl)nc(Nc4ccc(S(=O)(=O)O)cc4)n3)c(S(=O)(=O)O)c2)c2c1C(=O)c1ccccc1C2=O	active: 39.8 µM	–
N=C1C(c2ccccc2)=C(O)CN1c1ccccc1N1CCOCC1	inconclusive: 6.31 µM	–
Nc1ccc(O)c(C(=O)O)c1	active: 15.8 µM and inconclusive: 39.8 µM	–
Fc1ccc(CSc2nnc(-c3cnccn3)n2Cc2ccco2)cc1	inactive	–
CN(C)CCCN1c2ccccc2CCc2ccc(Cl)cc21	inconclusive: 15.8 µM	–
CC(=O)N[C@@H](CC(=O)O)C(=O)N[C@@H](CCC(=O)O)C(=O)O (Ac-Asp-Glu-OH)	active: 20 µM	–
CC(OC(=O)c1ccc2ccccc2n1)C(=O)Nc1ccc(N2CCOCC2)cc1 (stereo not drawn)	inconclusive: 6.31 µM	–
Cc1c(C)c2c(c(C)c1O)CC[C@@](C)(CCC[C@@H](C)CCC[C@@H](C)CCCC(C)C)O2	inactive	–

From PubChem BioAssay AID603 (National Center for Advancing Translational Sciences (NCATS), 2007)
